Test results as given in the supplement of paper PMC12632987.
Whole data set: some 2,300 sequences, median “median log2 fold change of GCK-ALFA target abundance (FLAG IP / Myc IP barcode read proportion)” near 0.095, cut for the lowest 2% near -0.47. This is one part of the list.

B1: LC3A_28_840 (protein)
chain: SKTEEANKEALAKAKEAAAAGKQEVIELKVYDASTQEAVDNTIKTLNEIAEILSSLPNQTILILFENPIPQEARDNIIDAAEEIEKKYPNVTVIIALPEE
B2: LC3A_17_594 (protein)
chain: MEEIKKKLEELLKEAEALIKKLAELRPEAAPEAKKKLKEAKKLLEEGKLKEAAKTLAELADYIADVFDELEEEGIEEAAPLEMEANGIEVEAELLLLKLD
B3: LC3A_28_1286 (protein)
chain: SEIEENLKKALEEAKKAVAEGKPAVITIKVPGNATEEEIEKVKEAMKEIAEILKDVKDQAIVIDVDGGVKEEHIDKLADAAEEIEKKYPNVTVIIALDEE
B4: LC3A_3_1796 (protein)
chain: MEEKLKELLEELREAGKSEETIEAARKTLNALIEKGYEKAFETLIEELRELKDIPDEILLDLLQEVLELIENEDLSEEELTEEIKELARLARLESEIEEL
B5: LC3A_free_46_2313 (protein)
chain: VVAEIEIDLLHKDEEVLKKAVEEIVKEIKEIAEKYGLELEIEIEFSKLEDGDYYARIKITLKGETLEDVQAAVNEIIEKIDEIAEKYDVSYIISVEIIEE
B6: LC3A_28_943 (protein)
chain: MSIEEDIEAALKEAKEAKKKGEPAVITITVKGTATQEEVDAVIKTIKEIAELLKDIKGSAIIVDIEAGVAQEHVDALMDTLDEIEKKYPNINAIAALDED
B7: LC3A_3_1727 (protein)
chain: MEERLARARERLRALGLSPEVFEAALATIEALLEKGLEEQAERLLEALERNRDADPERLLAWLEDIRRLLETDKSSKEELAKKVEEEIRAFENDAEIEEL
B8: LC3A_17_546 (protein)
chain: KEEIKKRLEELLKELEKLVEKLKPYDPEAAKKLKERLERARKLLEEGKLKEAAEELIEAAEELADAWEKLEPKLGTEASVQSMEANGIELEAIGLLLELE
B9: LC3A_28_1111 (protein)
chain: MDNRELNEKALKEAKEAAAKGEPAVITLHVTEEDTEEDIEEFIETLREIAELLKDVEGAAIIIDIDGKLPQEHLDKIADEAEEIEKEYPNITVIIALDEE
B10: LC3A_132_241 (protein)
chain: SEELYEKLKKEVDALLDALAANKDNLAAVKKLVAELEKLLEKAEKELSPEQVEELARDTADRLDALREEAEAAGKAEVASLLDNAAMYADGIAIEAELKL
B11: LC3A_28_747 (protein)
chain: SEIEKQLKEVLEEARRAAERGEPVVLTIKVSGTATQEDIEKVMKALEEIAEILKDVPDVAIIIDISGTLKQEHINKLLDKAEEIEKKYPNVTVIFALDEE
B12: LC3A_3_1586 (protein)
chain: LEEKKKEMLQALKEAGHSEETIKAVEELLKKLEEKGYEEAAKEFIELVLENIDLSSELLLEVALELLELVEAGKLSEEEIIEKARELFRVARSEQEIIEL
B13: LC3A_free_2_2170 (protein)
chain: ATYRVEVDVLGPAAGVAALFDVLAAHGLTVTVEYEDGTVVEGTAAEHAARMRELAAKGEEVLVRITFETDRATAEAVSAELDAVAEATGVAALIDIEEIG
B14: LC3A_free_8_2461 (protein)
chain: DNQKLVDTAVEKLEELEEELVKKAKELGLSELDILDLELEIGSAIAEVISNVDKSKEEIIKTTKEELEDIIKYAKELGEEVAELAKKKSEEILKELEKLK
B15: LC3A_28_694 (protein)
chain: SAIDAQLAAAEAAVAAAVAAGEDALVEFTVSGTATAADIDRLLAAVRAMAERMAAVGKLYVVVDLDGDVSAAHQQRLADGLDALEAEYPHLSAVIALEED
B16: LC3A_78_2081 (protein)
chain: MKVAIIAHTESGKEIAEELEKKLTDADEVIIGPISELEKLVEKHKDADEILVDIVADTLDEVDAAEEKVRKILSDYNHSSIYEYDEETGKWIGHIIATKK
B17: LC3A_28_855 (protein)
chain: SETRKSIEEAREELEKAREAKEPAVITVTVTSDVTEEEVEEVIELIKEAAEASKEVPDLTLIIDFEGEIDPEHLNRITDAADEAIKKNPKLNVIFALDEE
B18: LC3A_28_1095 (protein)
chain: SALEKQLAAALAEVEAAAARGEEVVVTINVDDTATEEDIELLKKTLERMAEIAKTLPALSVIINLSGEKAQEKATILSDHADELEKRYPNLTVIIALDED
B19: LC3A_28_1022 (protein)
chain: SALDEELEALRAEVEAALARGEDVLLEVTIKPTDSLEEVRRKMERVKEIALEASKRGKVDVLIDVEKGVSQEKIDIVMDAAEELEEEDPSVNVIIALEEE

These binders were tested against MAP1LC3A, Q9H492 (assay: median log2 fold change of GCK-ALFA target abundance (FLAG IP / Myc IP barcode read proportion) (log2 ratio); each designed protein is fused to an ALFA-tag nanobody in HEK293 cells to bring the named protein to FLAG-tagged glucokinase (GCK); Myc marks an untargeted standard; higher = target protein stabilised (more abundant)). Settings: target protein: 3xFLAG-MCP-GCK-ALFA reporter; HEK293 landing pad (RPLP).
How it was run: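 An ALFA-nanobody-fused binder library was recombined into HEK293 landing-pad cells and induced with 2 μg mL^−1 doxycycline. Cells were transfected with a plasmid expressing a FLAG-tagged target and a Myc-tagged standard. After 48 h, lysates underwent anti-FLAG and anti-Myc immunoprecipitation, and circular RNA barcodes were reverse transcribed, amplified and sequenced. Target abundance is the per-binder median log2 ratio of FLAG to Myc barcode read proportions. Barcodes needed ≥10^−7 proportion in both replicates, binders ≥3 barcodes per replicate, and a 10^−6 pseudocount was added; the two replicates were pooled.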

Question: For B1, which “median log2 fold change” value is on record?
Answer: -0.00875

Question: B2 was tested. Which “median log2 fold change” value did it give?
Answer: 0.0502

Question: With B3 as the binder, how does the “median log2 fold change” value read?
Answer: -0.187

Question: How did the “median log2 fold change” value turn out when B4 was run?
Answer: -0.109

Question: How did the “median log2 fold change” value turn out when B5 was run?
Answer: 0.141

Question: How did the “median log2 fold change” value turn out when B6 was run?
Answer: -0.355

Question: For B7, which “median log2 fold change” value is on record?
Answer: 0.248

Question: B8 was tested. Which “median log2 fold change” value did it give?
Answer: 0.0598

Question: With B9 as the binder, how does the “median log2 fold change” value read?
Answer: -0.0813

Question: With B10 as the binder, how does the “median log2 fold change” value read?
Answer: 0.00601

Question: For B11, which “median log2 fold change” value is on record?
Answer: -0.23

Question: How did the “median log2 fold change” value turn out when B12 was run?
Answer: 0.148

Question: B13 was tested. Which “median log2 fold change” value did it give?
Answer: -0.0528

Question: For B14, which “median log2 fold change” value is on record?
Answer: -0.224

Question: For B15, which “median log2 fold change” value is on record?
Answer: -0.415

Question: B16 was tested. Which “median log2 fold change” value did it give?
Answer: 0.263

Question: For B17, which “median log2 fold change” value is on record?
Answer: 0.127

Question: B18 was tested. Which “median log2 fold change” value did it give?
Answer: 0.208

Question: For B19, which “median log2 fold change” value is on record?
Answer: 0.00506
